The supplement of paper PMC3334620
In all, about 33,000 sequences were measured (“E-score (-0.5 to 0.5)”: median about -0.043, highest 2% from about 0.37 on). Some of the results follow.

What follows are sequences tested against T1, Upc2 (UniProt Q12151) (assay: PBM E-score (8-mer binding enrichment) (E-score (-0.5 to 0.5)); higher = stronger / more preferred TF binding; most listed sequences are background and not binding sites). Settings: protein concentration: 200 nM; construct: GST-full length.
T1 sequence: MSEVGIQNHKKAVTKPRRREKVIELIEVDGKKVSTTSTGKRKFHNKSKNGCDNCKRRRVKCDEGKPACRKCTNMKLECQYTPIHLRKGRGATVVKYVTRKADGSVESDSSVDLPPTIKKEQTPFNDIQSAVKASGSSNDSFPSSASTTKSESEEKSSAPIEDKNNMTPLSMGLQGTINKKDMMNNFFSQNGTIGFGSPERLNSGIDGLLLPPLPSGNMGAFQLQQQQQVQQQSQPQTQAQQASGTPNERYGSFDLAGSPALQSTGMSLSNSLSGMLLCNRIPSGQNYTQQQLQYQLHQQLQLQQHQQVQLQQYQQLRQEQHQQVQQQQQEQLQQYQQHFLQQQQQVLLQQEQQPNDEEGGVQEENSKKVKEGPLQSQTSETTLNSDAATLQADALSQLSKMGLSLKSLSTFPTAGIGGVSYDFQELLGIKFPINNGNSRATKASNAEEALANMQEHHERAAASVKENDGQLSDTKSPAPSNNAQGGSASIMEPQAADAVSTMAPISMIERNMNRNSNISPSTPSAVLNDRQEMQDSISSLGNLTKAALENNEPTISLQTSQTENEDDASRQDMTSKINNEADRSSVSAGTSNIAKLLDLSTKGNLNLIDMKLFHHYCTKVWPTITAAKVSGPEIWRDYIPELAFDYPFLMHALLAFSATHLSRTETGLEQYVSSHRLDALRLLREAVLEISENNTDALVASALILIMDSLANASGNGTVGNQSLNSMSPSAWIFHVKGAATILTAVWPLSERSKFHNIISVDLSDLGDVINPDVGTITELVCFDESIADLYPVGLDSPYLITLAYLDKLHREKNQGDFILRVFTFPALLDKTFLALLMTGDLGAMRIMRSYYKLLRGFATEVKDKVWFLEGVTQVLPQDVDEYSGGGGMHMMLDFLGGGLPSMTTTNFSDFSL
Description: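 Universal 'all 10-mer' protein binding microarrays (Agilent AMADID 015681) probed with GST-tagged S. cerevisiae TFs (full-length or DBD) made by in vitro transcription/translation (PURExpress), about 100-200 nM. Bound TF was detected with fluorescent anti-GST. Each ungapped 8-mer (which stands for itself and its reverse complement) is scored by the PBM enrichment score (E-score), a modified Wilcoxon-Mann-Whitney statistic from -0.5 to +0.5, computed with the Universal PBM Analysis Suite. Scale: above 0.35 generally sequence-specific binding.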

Sequence | PBM E-score
TATAACCA | 0.199
CTAAAGTC | -0.173
CCTGGAGC | -0.181
ACTATTAC | 0.139
TAATTAGA | -0.0275
AATGCCGG | -0.0772
ACACGTTC | 0.0624
TGACATCA | -0.147
ACCATCGA | 0.0236
GTCAGCAA | -0.0896
AGCCATTA | 0.178
AAGAAACC | -0.0601
ATGGCTCG | 0.0827
CAGCATGC | -0.172
CGACAAGA | 0.117
CTCACTCA | -0.162
TGCGCGCA | -0.0425
ATCCTTCC | -0.348
ATAGGGAA | -0.212
GGCACTCA | -0.233
CGCAAAGA | -0.00387
ATTAATGC | -0.0273

Sequence | PBM E-score
GAATGCAC | -0.0715
ACCCGCTC | 0.0104
ATGGATCG | 0.183
GCTGCTCA | 0.0785
CACAAGAG | -0.123
AGAACTAC | 0.0405
CACCGCTG | -0.0374
GAAGCCAA | -0.241
CTGTACAC | 0.152
ACGTTCAC | 0.139
ACTATAGC | -0.0424
CGGAAATC | 0.0537
CTCGACGC | -0.0193
TAAGATTA | -0.0656
CCAGATGG | -0.225
CCATCTAC | -0.188
AGGTCACG | -0.441
GGTAGGAC | -0.2
ATATTAGC | 0.114
ATAGCGGC | 0.181
CCTAGCAC | -0.0773
AATGACAC | -0.062

Sequence | PBM E-score
CATAGAGA | -0.247
CCGGACAG | -0.0604
ACCACCGC | -0.0688
CAATTACA | -0.0274
AATGGCAA | -0.0905
AGACGCTA | -0.18
CCCGCCTC | -0.099
CCCGGAAG | -0.248
TAGCAAGA | -0.198
ATTTGGAC | -0.108
GCTACTAC | -0.00529
CGGTCATA | 0.0905
AAGCACGT | -0.00226
TACAATGA | -0.0508
GGTGAGGA | 0.0704
CTAAATAA | 0.195
GCAATCAA | -0.205
CCGCGACA | -0.0122
ATTACCCC | -0.0985
AGCCCGGG | -0.251
AATCGCCC | -0.158
AGGATCAT | -0.0772

Sequence | PBM E-score
GCGGGGTA | -0.00335
TCGGACGA | -0.0442
ACTAAAAT | 0.113
AGCAACTG | -0.129
CTATTCCA | -0.206
AATCCAGA | -0.1
ATGCGGCG | 0.134
GTCCTGAA | -0.0301
AACTCGTG | 0.178
AAACTGTT | -0.0522
CTGGACAC | -0.212
AACATTCT | 0.0423
CAGAAGAA | -0.176
AAGTGGAC | -0.173
ATAGTGAG | -0.17
CACATGCA | -0.223
CCCTGTCG | 0.035
AGCCTAAA | -0.0412
ATCAGGTA | -0.14
CACCATGG | -0.185
